Measurements reported in article PMC12466843.
No constants are given. Whether binding was seen depends on the method and setting. In cells and extracts the contact can be indirect. Some entries that bind do so weakly or less than the wild type. For some assays here: Sequences can lack the tags named with a protein.

By UniProt entry, the sequences of proteins in these tests, tags left out.
UniProt Q9ULZ3: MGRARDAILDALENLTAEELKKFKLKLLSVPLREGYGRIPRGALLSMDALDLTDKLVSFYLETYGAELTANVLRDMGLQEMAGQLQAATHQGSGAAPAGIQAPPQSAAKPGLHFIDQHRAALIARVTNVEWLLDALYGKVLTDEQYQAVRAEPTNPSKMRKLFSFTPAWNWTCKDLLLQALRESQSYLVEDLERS
UniProt P29466: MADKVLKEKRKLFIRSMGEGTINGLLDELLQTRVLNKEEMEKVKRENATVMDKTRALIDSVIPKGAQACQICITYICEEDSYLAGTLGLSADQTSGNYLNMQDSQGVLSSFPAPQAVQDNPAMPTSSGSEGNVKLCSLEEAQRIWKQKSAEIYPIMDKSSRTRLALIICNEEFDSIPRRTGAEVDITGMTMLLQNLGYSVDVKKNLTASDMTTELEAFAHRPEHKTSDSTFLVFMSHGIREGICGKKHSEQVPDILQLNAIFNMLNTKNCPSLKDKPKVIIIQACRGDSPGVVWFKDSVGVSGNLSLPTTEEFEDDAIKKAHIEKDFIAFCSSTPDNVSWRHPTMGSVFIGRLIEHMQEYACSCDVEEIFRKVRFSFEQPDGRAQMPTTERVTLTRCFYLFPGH
UniProt Q96P20: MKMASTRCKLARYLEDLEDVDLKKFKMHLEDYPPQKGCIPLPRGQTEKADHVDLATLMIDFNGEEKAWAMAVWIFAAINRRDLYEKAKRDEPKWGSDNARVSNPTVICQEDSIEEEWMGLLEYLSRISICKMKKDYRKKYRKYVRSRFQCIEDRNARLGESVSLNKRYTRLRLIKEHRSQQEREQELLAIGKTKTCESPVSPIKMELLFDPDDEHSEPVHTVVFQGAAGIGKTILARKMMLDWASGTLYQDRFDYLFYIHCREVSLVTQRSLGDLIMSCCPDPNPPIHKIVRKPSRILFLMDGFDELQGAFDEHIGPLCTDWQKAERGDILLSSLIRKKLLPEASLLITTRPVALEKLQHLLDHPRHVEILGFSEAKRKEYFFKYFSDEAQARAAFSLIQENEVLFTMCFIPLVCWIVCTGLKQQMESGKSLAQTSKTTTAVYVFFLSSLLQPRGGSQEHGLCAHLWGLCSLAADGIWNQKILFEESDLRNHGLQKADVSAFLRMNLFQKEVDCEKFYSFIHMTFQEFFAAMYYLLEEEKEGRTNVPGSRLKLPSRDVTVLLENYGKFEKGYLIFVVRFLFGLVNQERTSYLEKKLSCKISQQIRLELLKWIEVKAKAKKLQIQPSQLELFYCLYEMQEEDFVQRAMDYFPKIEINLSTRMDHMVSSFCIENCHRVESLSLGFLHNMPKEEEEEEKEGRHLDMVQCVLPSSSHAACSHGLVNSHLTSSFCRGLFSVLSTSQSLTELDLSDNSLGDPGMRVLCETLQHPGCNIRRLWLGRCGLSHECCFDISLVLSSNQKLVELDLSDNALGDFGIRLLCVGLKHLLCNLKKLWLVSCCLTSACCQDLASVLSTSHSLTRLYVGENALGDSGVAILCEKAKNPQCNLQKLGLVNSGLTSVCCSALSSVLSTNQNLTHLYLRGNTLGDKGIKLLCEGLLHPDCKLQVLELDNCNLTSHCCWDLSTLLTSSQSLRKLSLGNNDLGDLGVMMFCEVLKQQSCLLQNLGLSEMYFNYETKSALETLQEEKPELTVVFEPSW
UniProt Q8R4B8: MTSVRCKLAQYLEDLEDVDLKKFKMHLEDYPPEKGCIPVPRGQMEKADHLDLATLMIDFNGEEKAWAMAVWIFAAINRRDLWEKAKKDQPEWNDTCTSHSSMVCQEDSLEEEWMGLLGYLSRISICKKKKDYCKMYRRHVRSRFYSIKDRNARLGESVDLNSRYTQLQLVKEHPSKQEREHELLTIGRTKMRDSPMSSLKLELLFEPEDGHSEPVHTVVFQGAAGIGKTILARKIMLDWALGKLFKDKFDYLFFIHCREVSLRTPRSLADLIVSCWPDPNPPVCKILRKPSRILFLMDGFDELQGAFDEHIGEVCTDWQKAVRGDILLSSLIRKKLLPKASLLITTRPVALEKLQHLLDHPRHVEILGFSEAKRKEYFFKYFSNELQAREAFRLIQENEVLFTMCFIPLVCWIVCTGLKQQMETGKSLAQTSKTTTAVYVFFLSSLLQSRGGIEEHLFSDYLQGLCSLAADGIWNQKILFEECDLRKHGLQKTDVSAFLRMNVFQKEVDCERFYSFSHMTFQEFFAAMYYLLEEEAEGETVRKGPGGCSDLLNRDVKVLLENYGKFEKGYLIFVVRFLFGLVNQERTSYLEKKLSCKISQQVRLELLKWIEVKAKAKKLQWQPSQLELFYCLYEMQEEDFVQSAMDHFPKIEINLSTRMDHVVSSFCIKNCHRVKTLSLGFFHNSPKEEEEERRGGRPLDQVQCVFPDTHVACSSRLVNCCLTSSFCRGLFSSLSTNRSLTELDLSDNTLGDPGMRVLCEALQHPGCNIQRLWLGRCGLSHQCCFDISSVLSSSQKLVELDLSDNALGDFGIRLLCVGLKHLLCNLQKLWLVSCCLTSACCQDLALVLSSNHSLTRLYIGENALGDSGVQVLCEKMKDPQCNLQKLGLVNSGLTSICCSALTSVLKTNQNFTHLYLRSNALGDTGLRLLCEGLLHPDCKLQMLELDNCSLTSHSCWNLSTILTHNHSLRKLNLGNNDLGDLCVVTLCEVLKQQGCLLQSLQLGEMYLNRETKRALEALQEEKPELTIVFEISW

B1: Flag-tagged human USP13 (enzyme, UniProt Q92995 1-863)
chain: MQRRGALFGMPGGSGGRKMAAGDIGELLVPHMPTIRVPRSGDRVYKNECAFSYDSPNSEGGLYVCMNTFLAFGREHVERHFRKTGQSVYMHLKRHVREKVRGASGGALPKRRNSKIFLDLDTDDDLNSDDYEYEDEAKLVIFPDHYEIALPNIEELPALVTIACDAVLSSKSPYRKQDPDTWENELPVSKYANNLTQLDNGVRIPPSGWKCARCDLRENLWLNLTDGSVLCGKWFFDSSGGNGHALEHYRDMGYPLAVKLGTITPDGADVYSFQEEEPVLDPHLAKHLAHFGIDMLHMHGTENGLQDNDIKLRVSEWEVIQESGTKLKPMYGPGYTGLKNLGNSCYLSSVMQAIFSIPEFQRAYVGNLPRIFDYSPLDPTQDFNTQMTKLGHGLLSGQYSKPPVKSELIEQVMKEEHKPQQNGISPRMFKAFVSKSHPEFSSNRQQDAQEFFLHLVNLVERNRIGSENPSDVFRFLVEERIQCCQTRKVRYTERVDYLMQLPVAMEAATNKDELIAYELTRREAEANRRPLPELVRAKIPFSACLQAFSEPENVDDFWSSALQAKSAGVKTSRFASFPEYLVVQIKKFTFGLDWVPKKFDVSIDMPDLLDINHLRARGLQPGEEELPDISPPIVIPDDSKDRLMNQLIDPSDIDESSVMQLAEMGFPLEACRKAVYFTGNMGAEVAFNWIIVHMEEPDFAEPLTMPGYGGAASAGASVFGASGLDNQPPEEIVAIITSMGFQRNQAIQALRATNNNLERALDWIFSHPEFEEDSDFVIEMENNANANIISEAKPEGPRVKDGSGTYELFAFISHMGTSTMSGHYICHIKKEGRWVIYNDHKVCASERPPKDLGYMYFYRRIPS
B2: USP13, endogenous in murine macrophages (enzyme, UniProt Q5BKP2 1-858)
chain: MQRRGALFSVPGGGGKMAAGDLGELLVPHMPTIRVPRSGDRVYKNECAFSYDSPNSEGGLYVCMNTFLAFGREHVERHFRKTGQSVYMHLKRHMREKVRGASGGALPKRRNSKIFLDLDMDDDLNSDDYEYEDEAKLVIFPDHYEIALPNIEELPALVTIACDAVLSSKSPYRKQDPDTWENEVPVSKYANNLVQLDNGVRIPPSGWKCARCDLRENLWLNLTDGSVLCGKWFFDSSGGNGHALEHYRDMGYPLAVKLGTITPDGADVYSFQEEGPVSDPHLAKHLAHFGIDMLHTQGTENGLRDNDIKPRVSEWEVIQESGTKLKPMYGPGYTGLKNLGNSCYLSSVMQAIFSIPEFQRAYVGNLPRIFDYSPLDPTQDFNTQMTKLGHGLLSGQYSKPPVKSELIEQVMKEEHKPQQNGISPRMFKAFVSKSHPEFSSNRQQDAQEFFLHLVNLVERNRIGSENPSDVFRFLVEERIQCCQTRKVRYTERVDYLMQLPVAMEAATNKDELITYELMRREAEANRRPLPELVRAKIPFSACLQAFAEPDNVDDFWSSALQAKSAGVKTSRFASFPEYLVVQIKKFTFGLDWVPRKFDVSIDMPDLLDISHLRARGLQPGEEELPDISPPIVIPDDSKDRLMNQLIDPSDIDESSVMQLAEMGFPLEACRKAVYFTGNTGAEVAFNWIIVHMEEPDFAEPLAIPGYGGAGASVFGATGLDNQPPEEIVAIITSMGFQRNQAVQALQATNHNLERALDWIFSHPEFEEDSDFVIEMENNANANIVSEAKPEGPRVKDGSGMYELFAFISHMGTSTMSGHYVCHIKKEGRWVIYNDHKVCASERPPKDLGYMYFYRRIPS

Assays:
Myc-human ASC (human) = Myc-human ASC (human) (UniProt Q9ULZ3); assay: co-IP; HEK293T cells transfected with Myc- and Flag-tagged plasmids; lysates immunoprecipitated with anti-c-Myc beads at 4°C overnight; IP lysis buffer (150 mM NaCl, 100 mM tris-HCl pH 8.0, 0.5% Triton X-100, 2 mM EDTA); immunoblot (Fig. 1B, C, I, J)
[1] = target: Myc-human pro–caspase-1 (human) (UniProt P29466); assay: as above
[2] = target: Myc-tagged human NLRP3 (human) (UniProt Q96P20); assay: as above
[3] = target: NLRP3, endogenous in murine macrophages (mouse (endogenous in BMDMs and PRMs)) (UniProt Q8R4B8); assay: co-IP; endogenous proteins in murine PRMs treated with LPS for indicated times; lysates immunoprecipitated with a control IgG or anti-NLRP3 antibody (Fig. 1F, G)
[4] = target: NLRP3, endogenous in murine macrophages (mouse (endogenous in BMDMs and PRMs)) (UniProt Q8R4B8); assay: co-IP; endogenous proteins in murine BMDMs, resting or treated with LPS (100 ng/ml) or Pam3CSK4 (200 ng/ml) for indicated times (Fig. 1D, E), or Usp13+/+ and Usp13-/- BMDMs treated with MG132 for 6 hours and then LPS (Fig. 4J); lysates immunoprecipitated with anti-NLRP3 antibody and protein A/G agarose; interaction weak in resting cells, increased by priming

Binder	binding (Myc-human ASC (human))	binding [1]	binding [2]	binding [3]	binding [4]
B1	no binding	no binding	binds		
B2				binds	binds
